Data as given in a collection of fitness landscapes (doi:10.1126/science.1257360).
The other results are listed elsewhere or left out.

B1: PhoQ; a variant is named by its letters at X, in order, P23837 (parent)
chain: MKKLLRLFFPLSLRVRFLLATAAVVLVLSLAYGMVALIGYSVSFDKTTFRLLRGESNLFYTLAKWENNKLHVELPENIDKQSPTMTLIYDENGQLLWAQRDVPWLMKMIQPDWLKSNGFHEIEADVNDTSLLLSGDHSIQQQLQEVREDDDDAEMTHSVAVNVYPATSRMPKLTIVVVDTIPVELKSSYMVWSWFIYVLSANLLLVIPLLWVAAWWSLRPIEALAKEVRELEEHNRELLNPATTRELTSLVRNLNRLLKSERERYDKYRTTLTDLTHSLKTPLXXLQXXLRSLRSEKMSVSDAEPVMLEQISRISQQIGYYLHRASMRGGTLLSRELHPVAPLLDNLTSALNKVYQRKGVNISLDISPEISFVGEQNDFVEVMGNVLDNACKYCLEFVEISARQTDEHLYIVVEDDGPGIPLSKREVIFDRGQRVDTLRPGQGVGLAVAREITEQYEGKIVAGESMLGGARMEVIFGRQHSAPKDE

Variants of: B1
Assay: enrichment ratio after two sorts for PhoP signalling (ratio (wild type AVST 3.29)); higher = more functional
Conditions: with PhoP (E. coli)

Variant	enrichment ratio
ICCN	≤ 0.25
DDNC	≤ 0.25
QYPK	≤ 0.25
SQFK	≤ 0.25
RMMW	≤ 0.25
IQCQ	≤ 0.25
NLYV	≤ 0.25
IHAE	≤ 0.25
YLCI	≤ 0.25
FNNS	≤ 0.25
SQWH	≤ 0.25
NAGT	≤ 0.25
DGTK	≤ 0.25
TMDY	≤ 0.25
NSMW	≤ 0.25
MHKP	≤ 0.25
SEIW	1.6
SERH	≤ 0.25
MNWI	6.11
HQPE	≤ 0.25
WSQD	≤ 0.25
GGMV	5
SEKC	≤ 0.25
IEFW	≤ 0.25
MRWM	≤ 0.25
NKHM	≤ 0.25

Variant	enrichment ratio
MMVY	4.88
NKGQ	≤ 0.25
QADV	6.54
ARPD	≤ 0.25
QTYE	≤ 0.25
MGWF	2.17
ESAH	≤ 0.25
KWCS	≤ 0.25
PYGH	≤ 0.25
RGTE	≤ 0.25
AGPA	≤ 0.25
SWHM	≤ 0.25
KMGY	≤ 0.25
SLHW	≤ 0.25
MHSM	≤ 0.25
SMTC	8.15
MEWR	≤ 0.25
MHLS	≤ 0.25
PMEK	≤ 0.25
KHNS	≤ 0.25
EDTW	≤ 0.25
IIMW	≤ 0.25
NVSI	≤ 0.25
SWGE	≤ 0.25
IQYD	≤ 0.25
TTWI	9.7

Variant	enrichment ratio
KKYL	≤ 0.25
AHAF	≤ 0.25
PNRH	≤ 0.25
HVHF	≤ 0.25
LAPS	≤ 0.25
DDSL	≤ 0.25
TDRG	≤ 0.25
YPVF	≤ 0.25
AFFD	≤ 0.25
PWHV	≤ 0.25
KTES	≤ 0.25
NVKD	≤ 0.25
LTFM	≤ 0.25
HIFP	≤ 0.25
YDYI	≤ 0.25
QFTD	≤ 0.25
RIVF	≤ 0.25
DMCV	≤ 0.25
ADSP	≤ 0.25
NPHP	≤ 0.25
NYAF	≤ 0.25
ECMG	≤ 0.25
YCFN	≤ 0.25
WVAR	≤ 0.25
GEVT	9.41
WAQH	≤ 0.25

Variant	enrichment ratio
KRFK	≤ 0.25
KGEF	≤ 0.25
AVLS	6.77
FIQY	≤ 0.25
DDHC	≤ 0.25
QDLG	≤ 0.25
YLTK	≤ 0.25
LFSQ	≤ 0.25
HHKP	≤ 0.25
RSTV	≤ 0.25
LDVI	≤ 0.25
YWVI	≤ 0.25
EEVV	≤ 0.25
PAVD	≤ 0.25
QLWK	≤ 0.25
NSHQ	≤ 0.25
HNGP	≤ 0.25
GQGA	≤ 0.25
PVLI	≤ 0.25
FNHH	≤ 0.25
PGTA	≤ 0.25
LEEK	≤ 0.25
QTCQ	≤ 0.25
DASK	≤ 0.25
GKSS	≤ 0.25
EPHV	≤ 0.25

Variant	enrichment ratio
EMYI	≤ 0.25
HKRF	≤ 0.25
YEEW	≤ 0.25
STHP	≤ 0.25
MPIE	≤ 0.25
TQHM	1.49
WDEF	≤ 0.25
FRGK	≤ 0.25
HMTA	≤ 0.25
LHYS	≤ 0.25
IQTL	≤ 0.25
YEEP	≤ 0.25
MMPI	≤ 0.25
CRFC	≤ 0.25
IPGA	≤ 0.25
HLWE	≤ 0.25
SMWQ	≤ 0.25
QRSL	≤ 0.25
EYQM	≤ 0.25
VDMH	≤ 0.25
PLFN	≤ 0.25
NYDN	≤ 0.25
DCPM	≤ 0.25
CLLI	11
SLSN	8.45
PTNS	≤ 0.25

Variant	enrichment ratio
PNYA	≤ 0.25
VHLW	≤ 0.25
VDFV	≤ 0.25
KCDV	≤ 0.25
DSRM	≤ 0.25
RMKH	≤ 0.25
VTDE	≤ 0.25
LYAK	≤ 0.25
QEFE	≤ 0.25
TDTA	0.556
NIFC	≤ 0.25
EGYI	≤ 0.25
SGVC	9.59
YGSD	≤ 0.25
VIGW	≤ 0.25
YTDW	≤ 0.25
HDSN	≤ 0.25
CLIV	≤ 0.25
SLLL	5.02
HDCL	≤ 0.25
LTKL	≤ 0.25
YQWI	≤ 0.25
HFLC	≤ 0.25
